Data on 94 compounds can be found in PubChem BioAssay AID360 (National Center for Advancing Translational Sciences (NCATS), 2006).

About 550 (1.1%) of roughly 48,000 compounds were called active. Roughly 4% stayed inconclusive and do not appear here. Rule as the data show it: active = potency below about 15 µM; inconclusive = mostly about 16 µM to 33 µM; inactive = weaker than that. The list shows a part of the results.
Potency is read from the fitted curve at half-maximal effect.

UniProt P04062, sequence (P04062 whole entry, looked up): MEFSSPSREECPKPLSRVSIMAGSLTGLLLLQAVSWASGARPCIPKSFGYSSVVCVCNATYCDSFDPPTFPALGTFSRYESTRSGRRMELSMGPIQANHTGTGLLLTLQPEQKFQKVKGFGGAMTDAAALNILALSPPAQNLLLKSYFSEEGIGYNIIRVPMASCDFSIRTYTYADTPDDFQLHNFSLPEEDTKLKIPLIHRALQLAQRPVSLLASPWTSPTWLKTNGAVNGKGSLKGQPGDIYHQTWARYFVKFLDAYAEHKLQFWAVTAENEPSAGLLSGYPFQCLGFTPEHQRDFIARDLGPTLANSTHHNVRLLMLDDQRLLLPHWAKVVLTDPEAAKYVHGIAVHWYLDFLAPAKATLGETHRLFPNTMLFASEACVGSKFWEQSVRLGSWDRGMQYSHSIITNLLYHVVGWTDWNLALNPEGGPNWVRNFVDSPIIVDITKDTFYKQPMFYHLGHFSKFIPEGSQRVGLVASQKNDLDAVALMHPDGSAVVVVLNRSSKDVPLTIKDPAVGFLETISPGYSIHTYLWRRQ

The target of the experiment is Lysosomal acid glucosylceramidase (Homo sapiens) (UniProt P04062). As to the kind of experiment: Glucocerebrosidase.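 Also: the screen sought inhibitors.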 The note with it: purified enzyme, resorufin glucoside fluorescence (screen aimed at inhibitors), 20 min. The method, boiled down:
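Compounds titrated against 0.2 nM normal enzyme, 30 uM resorufin beta-D-glucopyranoside substrate, citrate/phosphate buffer with taurocholate and tween-20, pH 5.9. Reaction ran 20 min at room temperature; fluorescence (Ex 548/Em 600) gave AC50.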
`O=C(c1scc2c1CCCC2)N1CCOCC1`: the Potency is inactive: > 76.9 µM.

As for `c1ccc(N2CCN(c3nc4cc5c(cc4s3)OCO5)CC2)cc1`, the Potency was inactive: > 76.9 µM.

Take `O=C(Cn1cccc1C(=O)c1ccccc1)NCCCN1CCOCC1`: the Potency was inactive: > 76.9 µM.

Turning to `CCc1ccc(OCC(=O)Nc2ncc3c(n2)CC(C)(C)CC3=O)cc1`, the Potency was inactive: > 76.9 µM.

For `O=C(c1cnn2c(C(F)(F)F)cc(-c3ccco3)nc12)N1CCc2ccccc2C1`, the Potency is inactive: > 76.9 µM.

Consider `Cc1noc(C)c1COC(=O)CCc1nc2ccccc2s1`, for which the Potency was inactive: > 76.9 µM.

With `CCOc1ccc(NC(=O)C2CCN(C(=O)NCc3ccccc3)CC2)cc1`, the Potency was inactive: > 76.9 µM.

Regarding `CNc1cc(C)nc(-n2nc(C)cc2C)n1`, the Potency was inactive: > 76.9 µM.

For `COCC(C)NC(=O)c1ccccc1OC(C)=O` (centres undefined), the Potency was inactive: > 76.9 µM.

Regarding `Cc1ccc2cc(CN(Cc3cccs3)Cc3nnnn3CC3CCCO3)c(=O)[nH]c2c1` (centres undefined), the Potency was inactive: > 76.9 µM.

Turning to `O=C(CN1CCOCC1)n1c2ccccc2c2ccccc21`, the Potency is inactive: > 76.9 µM.

Take `Cc1cccc(Cn2c(NCC(C)O)nc3c2c(=O)n(C)c(=O)n3C)c1` (centres undefined): the Potency is inactive: > 76.9 µM.

`c1ccc(C2CC(c3ccccc3)n3ncnc3N2)cc1` (centres undefined): the Potency is inactive: > 76.9 µM.

As to `COCC(=O)N(Cc1nc2ccccc2c(=O)[nH]1)Cc1cccs1`, the Potency is inactive: > 76.9 µM.

Consider `CC(C)C[C@H](NC(=O)NCCc1ccc(Cl)cc1)C(=O)O`, for which the Potency was inactive: > 76.9 µM.

Consider `c1ccc(N2CCN(CCc3nnc4n3CCCCC4)CC2)cc1`, for which the Potency is inactive: > 76.9 µM.

For `CCOC(=O)c1cccc(NC(=O)CCc2nc(-c3ccc(C)cc3)no2)c1`, the Potency is inactive: > 76.9 µM.

As for `COc1ccc(-c2nnn(CC(=O)OC3CCCCC3)n2)cc1OC`, the Potency is inactive: > 76.9 µM.

In the case of `CCCCn1c(SCC(N)=O)nnc1-c1ccco1`, the Potency was inactive: > 76.9 µM.

Consider `COC(=O)Cn1cc(C(=O)c2cccs2)c2ccccc21`, for which the Potency is inactive: > 76.9 µM.

On to `Cc1onc(COc2ccccc2O)c1Br`, for which the Potency is inactive: > 76.9 µM.

Turning to `COc1ccc(CN/C(C)=C(/C#N)C(N)=O)cc1OC`, the Potency was inactive: > 76.9 µM.

As for `O=C(Nc1cccc(Cl)c1)Nc1ccc2c(c1)OCO2`, the Potency is inactive: > 76.9 µM.

Regarding `OC1(c2ccc(F)cc2)CCN(Cc2ccccc2)C1` (centres undefined), the Potency is inactive: > 76.9 µM.

With `Cn1c(N)c(C(=O)NCc2ccccc2Cl)sc1=S`, the Potency was inactive: > 76.9 µM.

As for `Cc1c(NC(=O)C(C)OC(=O)CC2Sc3ccccc3NC2=O)c(=O)n(-c2ccccc2)n1C` (centres undefined), the Potency is inactive: > 76.9 µM.

Consider `COC(=O)c1cc(S(=O)(=O)N2CCOCC2)ccc1Sc1ccccc1N`, for which the Potency was inactive: > 76.9 µM.

On to `O=C(CSc1nnc(-c2ccco2)n1CC1CCCO1)c1ccc(F)cc1` (centres undefined), for which the Potency was inactive: > 76.9 µM.

Turning to `Cc1ccc(S(=O)(=O)NC(=O)c2cc(C)n(CCCN3CCOCC3)c2C)cc1`, the Potency result was “inactive”.

As to `CC(C)c1ccc(Nc2nc(NCc3ccco3)nc(N3CCOCC3)n2)cc1`, the Potency result is “inactive”.

Regarding `CN1/C(=C/C(=O)C2CCC2)Sc2ccccc21`, the Potency was inactive: > 76.9 µM.

For the compound `O=C(OCC#CCSc1nnc(-c2ccc(Br)cc2)o1)c1ccco1`, the Potency was inactive: > 76.9 µM.

On to `CCCCN(CCCC)CCCNC(=O)CC1Oc2ccc(C)cc2NC1=O` (centres undefined), for which the Potency is inactive: > 76.9 µM.

For the compound `CCN(CC)c1ccc(-n2cc3c(=O)n(C)c(=O)n(C)c3c2)cc1`, the Potency is inactive: > 76.9 µM.

On to `O=C1C(Cl)=C(NCC2CCCO2)C(=O)N1CCc1ccccc1` (centres undefined), for which the Potency is inactive: > 76.9 µM.

As to `CC(=O)c1cc(-c2ccccc2)n(CC(=O)NCc2cccs2)c1C`, the Potency is inactive: > 76.9 µM.

`CCN1C(=O)CC(N2CCN(c3ccc(C(=O)c4ccccc4)cc3)CC2)C1=O` (centres undefined): the Potency is inactive: > 76.9 µM.

`CCCOC(=O)Nc1nc2ccccc2o1`: the Potency was inactive: > 76.9 µM.

Consider `COc1ccc(S(=O)(=O)NCc2ccco2)cc1-c1nnc2c3ccccc3c(C)nn12`, for which the Potency is inactive: > 76.9 µM.

In the case of `Cc1cc(C)nc(Nc2n[nH]c(Cc3ccccc3)n2)n1`, the Potency was inactive: > 76.9 µM.

`Cc1cc(N2CCc3ccccc32)n2ncnc2n1`: the Potency is inactive: > 76.9 µM.

Turning to `CCOC(=O)Nc1cc(OC)c(OC)cc1Cc1nccc2cc(OC)c(OC)cc12`, the Potency is inactive: > 76.9 µM.

Consider `COCCNC(=O)CN(C(=O)CCC(=O)Nc1cc(C)on1)c1ccccc1C`, for which the Potency is inactive: > 76.9 µM.

For `O=C(Nc1cccc2ccccc12)OC1C=CS(=O)(=O)C1` (centres undefined), the Potency is inactive: > 76.9 µM.

As to `Cc1csc(-c2cnn(-c3ccccc3)c2NC(=O)c2ccccc2)n1`, the Potency was inactive: > 76.9 µM.

As for `CCCCOc1ccc(S(N)(=O)=O)cc1`, the Potency is inactive: > 76.9 µM.

On to `CCOC(=O)CC1=C(C(=O)OCC)C(c2ccc(C)o2)C(C#N)=C(N)O1` (centres undefined), for which the Potency is inactive: > 76.9 µM.

For the compound `COC(=O)Nc1ccc(OC)c(OC)c1`, the Potency is inactive: > 76.9 µM.

Consider `CCOCCCNC(=O)c1ccccc1SCC`, for which the Potency was inactive: > 76.9 µM.

`Cc1nnc(SCC(=O)NCc2cccs2)[nH]c1=O`: the Potency is inactive: > 76.9 µM.

In the case of `CCN(CC(=O)NCc1cccs1)c1nnnn1-c1ccccc1`, the Potency is inactive: > 76.9 µM.

As to `O=C(NCCC1=CCCCC1)C1CCCN(S(=O)(=O)c2ccccc2)C1` (centres undefined), the Potency was inactive: > 76.9 µM.

Turning to `CCOc1ccccc1N(CC(=O)NC(C)(C)C)C(=O)Cn1nnc(-c2ccc(C)o2)n1`, the Potency was inactive: > 76.9 µM.

With `COC(=O)CN(c1ccccc1OC)S(=O)(=O)c1ccccc1`, the Potency was inactive: > 76.9 µM.

With `Cn1c(=O)oc2cc(S(=O)(=O)NCCC(=O)NC3CCCc4ccccc43)ccc21` (centres undefined), the Potency is inactive: > 76.9 µM.

As to `Cn1c(SCc2c(F)cccc2Cl)nnc1-c1cnccn1`, the Potency is inactive: > 76.9 µM.

On to `CCCOC(=O)CSc1nnc(-c2ccccc2Cl)o1`, for which the Potency was inactive: > 76.9 µM.

Consider `COC(=O)c1cc2ccsc2n1CC(=O)NCC1CCCO1` (centres undefined), for which the Potency entry was “inactive”.

Consider `COc1ccc(C)cc1S(=O)(=O)N(CC(=O)N1CCCC1)c1ccccc1`, for which the Potency was inactive: > 76.9 µM.

In the case of `COC(=O)c1ccccc1NC(=O)C1CCN(S(=O)(=O)c2cc(OC)ccc2OC)CC1`, the Potency is inactive: > 76.9 µM.

Turning to `CCN(CC)C(=O)Cn1c(=O)n(Cc2ccccc2Cl)c2c1c(=O)n(C)c(=O)n2C`, the Potency was inactive: > 76.9 µM.

`COc1ccc(S(=O)(=O)N2CCCC(C(=O)NCCC3=CCCCC3)C2)cc1` (centres undefined): the Potency is inactive: > 76.9 µM.

In the case of `C=CCn1c(NC(=O)c2ccccc2)c(C#N)c2nc3ccccc3nc21`, the Potency was inactive: > 76.9 µM.

On to `COc1ccc(OC)c(N2Cc3cc(C)c(C)cc3C2)c1`, for which the Potency is inactive: > 76.9 µM.

With `Cc1ccccc1-n1c(SCc2c(C)noc2C)nnc1-c1ccncc1`, the Potency is inactive: > 76.9 µM.

As for `CCOC(=O)c1sc(N)c(C(=O)OCC)c1COC(=O)C1CC(=O)N(Cc2ccco2)C1` (centres undefined), the Potency was inactive: > 76.9 µM.

For the compound `Nn1cc(-c2ccccc2)nc1SCC(=O)NCCN1C(=O)CSC1=O`, the Potency is inactive: > 76.9 µM.

With `C1CCN=C(Nc2nc3c(s2)CCCC3)CC1`, the Potency is inactive: > 76.9 µM.

On to `CC(=O)N(Cc1cc(=O)[nH]c2ccccc12)c1ccc(C)cc1`, for which the Potency is inactive: > 76.9 µM.

Regarding `CC(C)CCn1nnnc1C(c1ccc(N(C)C)cc1)N1CCN(C(=O)c2ccco2)CC1` (centres undefined), the Potency was inactive: > 76.9 µM.

In the case of `Cc1ccc2c(c1)CCCN2C(=O)c1cccs1`, the Potency was inactive: > 76.9 µM.

For the compound `Cc1cc(NC(=O)c2ccc(N(C)S(=O)(=O)c3ccccc3)cc2)no1`, the Potency was active: 15.4 µM.

As for `CCOc1ccc(NC(=O)CSc2nc3ccccc3c(=O)n2CCNC(C)=O)cc1`, the Potency was inactive: > 76.9 µM.

For the compound `CCCCC(=O)N1CCCC(c2nc3c(nnn3Cc3cc(C)ccc3C)c(=O)[nH]2)C1` (centres undefined), the Potency result was “inactive”.

In the case of `COc1ccc(CC(=O)Nc2ccc(S(=O)(=O)NCC3CCCO3)cc2)cc1` (centres undefined), the Potency was inactive: > 76.9 µM.

For `COCCCn1c(SCC(=O)NC(C)C)nnc1-c1ccccc1`, the Potency is inactive: > 76.9 µM.

For `Cc1sc2nc(SCC(=O)c3cccs3)n(Cc3ccco3)c(=O)c2c1C`, the Potency result was “inactive”.

Take `CC(C)Oc1c(Cl)cc(CNC(C)(C)CO)cc1Cl`: the Potency is inactive: > 76.9 µM.

For the compound `Cc1cccc2cc(COC(=O)C3CCCO3)c(=O)[nH]c12` (centres undefined), the Potency was inactive: > 76.9 µM.

Consider `O=C(Nc1c(F)cc(F)cc1Br)C1CCCO1` (centres undefined), for which the Potency was inactive: > 76.9 µM.

In the case of `CC(C)C[C@@H]1NC(=O)N(CCN2CCOCC2)C1=O`, the Potency is inactive: > 76.9 µM.

Consider `O=S1(=O)CC(N2CCOCC2)c2ccccc21` (centres undefined), for which the Potency was inactive: > 76.9 µM.

Turning to `COc1cccc(-c2nn(C)c3sc(C(=O)NCc4ccco4)cc23)c1`, the Potency was inactive: > 76.9 µM.

On to `O=c1oc2cc(OCc3nn[nH]n3)ccc2c2c1CCCC2`, for which the Potency is inactive: > 76.9 µM.

In the case of `COC(=O)Nc1ccccc1C(=O)N1CCCCC1`, the Potency was inactive: > 76.9 µM.

Regarding `COc1ccccc1-n1cc(C(=O)NCC(=O)N2CCN(c3ccccc3)CC2)c2ccccc2c1=O`, the Potency is inactive: > 76.9 µM.

In the case of `Cc1csc(SCC(=O)N2CCCC2)n1`, the Potency is inactive: > 76.9 µM.

As to `Cc1occc1C(=O)N1CCN(S(C)(=O)=O)CC1`, the Potency was inactive: > 76.9 µM.

Consider `CC(=O)N(Cc1ccccc1)c1ncc2c(n1)c(=O)c(C#N)c1ccccn12`, for which the Potency is inactive: > 76.9 µM.

On to `O=C(Nc1ccc(NC(=O)C2CC2)nc1)c1cccc(F)c1`, for which the Potency was inactive: > 76.9 µM.

In the case of `COc1ccc(-c2noc(CSc3nc4ccccc4c(=O)n3-c3ccccc3)n2)cc1OC`, the Potency was inactive: > 76.9 µM.

As for `CCOC(=O)c1c(NC(=O)CN2CCOCC2)sc2c1CCCC2`, the Potency was inactive: > 76.9 µM.

Take `O=C(CSc1nnc(-c2ccco2)n1Cc1ccco1)NCc1cccs1`: the Potency is inactive: > 76.9 µM.

Take `Cc1ccc(-c2cc(C(=O)Nc3c(C)n(C)n(-c4ccccc4)c3=O)[nH]n2)c(O)c1`: the Potency is inactive: > 76.9 µM.
